Measured values reported in PubChem BioAssay AID1159554 (Broad Institute, 2015).
Screen size: about 94,000 compounds; about 2,100 (2.2%) were called active. The inconclusive results got no clear call from the source; some entries with a clear call stand among them for comparison. Cut-off read from the data, not from the text of the source: active = activity change below about -80%; inconclusive = no clear call, values can overlap the other calls; inactive = above that.

assay: P. falciparum Dd2 growth inhibitors, primary screen, SYBR Green fluorescence, single dose replicates (AID 1159554); settings: 72 h, at 10 µM, hits give low values

Row | SMILES | activity change
1 | COc1ccc(S(=O)(=O)Nc2ccc3c(c2)CC(=O)N([C@@H](C)CO)C[C@@H](C)[C@H](CN(C)Cc2ccc(Oc4ccccc4)cc2)O3)cc1 | inconclusive: -80.1%
2 | C[C@H](CO)N1C[C@H](C)[C@@H](CN(C)S(=O)(=O)c2ccc(F)cc2)Oc2ccc(NC(=O)Cc3cn(C)c4ccccc34)cc2C1=O | inconclusive: -85.8%
3 | C[C@H](CO)N1C[C@H](C)[C@H](CN(C)Cc2ccc(C(=O)Nc3ccccc3N)cc2)Oc2ccc(NC(=O)NC3CCCCC3)cc2CC1=O | inconclusive: -81.6%
4 | C[C@H]1CN([C@@H](C)CO)C(=O)c2cccc(NC(=O)CCCCCC(=O)Nc3ccccc3N)c2O[C@H]1CN(C)S(=O)(=O)c1ccc(F)cc1 | inconclusive: -80.2%
5 | C[C@@H]1CN([C@@H](C)CO)C(=O)Cc2cc(NC(=O)Nc3ccccc3)ccc2O[C@H]1CN(C)Cc1ccc(C(=O)O)cc1 | inactive: 23.7%
6 | C[C@@H]1CN([C@H](C)CO)C(=O)c2cc(NC(=O)Nc3cccc4ccccc34)ccc2O[C@@H](C)CCCCO[C@H]1CN(C)Cc1ccccc1 | inconclusive: -80%
7 | CCCC(=O)N1CC2(CCN(Cc3nccs3)CC2)c2c([nH]c3cc(OC)ccc23)[C@@H]1CO | inconclusive: -80.2%
8 | CCCC(=O)N1CCC2(CC1)CN(Cc1ccccc1F)[C@H](CO)c1c2c2ccc(OC)cc2n1C | inconclusive: -80.3%
9 | CCCNC(=O)Nc1ccc2c(c1)OC[C@H](C)N(Cc1ccc(-c3ccccn3)cc1)C[C@H](C)[C@H](OC)CN(C)C2=O | inconclusive: -81.3%
10 | Cc1noc(C)c1S(=O)(=O)Nc1ccc2c(c1)C(=O)N([C@H](C)CO)C[C@@H](C)[C@@H](CN(C)S(=O)(=O)c1ccc(Cl)cc1)OCCCC[C@@H](C)O2 | inconclusive: -82.3%
11 | C[C@@H]1CCCCO[C@@H](CN(C)CC2CC2)[C@@H](C)CN([C@H](C)CO)C(=O)c2cc(NC(=O)Nc3ccccc3)ccc2O1 | active: -83.9%
12 | COc1cccc(S(=O)(=O)N(C)C[C@@H]2Oc3ncc(C#Cc4ccc(OC)c(OC)c4)cc3C(=O)N([C@H](C)CO)C[C@@H]2C)c1 | active: -91.8%
13 | C[C@@H]1CN([C@H](C)CO)C(=O)c2cc(NC(=O)Nc3ccc(F)cc3)ccc2O[C@@H](C)CCCCO[C@@H]1CN(C)S(=O)(=O)c1ccccc1 | active: -82.3%
14 | CNC[C@H]1OCCCC[C@@H](C)Oc2ccc(NC(=O)Nc3ccc(C(F)(F)F)cc3)cc2C(=O)N([C@H](C)CO)C[C@H]1C | active: -82.5%
15 | CCCC(=O)N1CCC2(CC1)CN(S(=O)(=O)c1ccc(C)cc1)[C@@H](CO)c1[nH]c3cc(OC)ccc3c12 | active: -91.8%
16 | C[C@H]1CN([C@@H](C)CO)C(=O)Cc2cc(NS(=O)(=O)c3ccccc3)ccc2O[C@@H]1CN(C)S(=O)(=O)c1ccc(F)cc1 | inactive: 16.2%
17 | N#Cc1ccc(-c2ccc(C3[C@@H]4CN(S(=O)(=O)c5ccc(F)cc5)C[C@H]3N4)cc2)cc1 (some centres undefined) | inconclusive: -81%
18 | C[C@@H]1CN([C@@H](C)CO)C(=O)c2ccccc2-c2ccccc2CO[C@H]1CN(C)C(=O)Nc1ccccc1 | inconclusive: -82.1%
19 | C[C@@H]1CN([C@H](C)CO)C(=O)c2cc(NC(=O)C3CCCCC3)ccc2O[C@@H](C)CCCCO[C@H]1CN(C)Cc1ccc(C(F)(F)F)cc1 | inconclusive: -82%
20 | CCC(=O)N1[C@H](CO)[C@H](c2ccccc2)[C@@H]1CN(CC)C(=O)c1cccc(F)c1 | inconclusive: -80.9%
21 | OC[C@@H]1CC[C@@H]2O[C@H](CCc3ccc(C#CCc4ccccc4)cc3)[C@H](n3cc(-c4ccccc4)nn3)C[C@@H]2O1 | inconclusive: -80.6%
22 | COc1ccc2c3c([nH]c2c1)[C@H](CO)N(C(=O)CN(C)C)CC31CCN(Cc2ccccc2Cl)CC1 | inconclusive: -81.8%
23 | COc1ccc2c3c(n(C)c2c1)[C@H](CO)NCC31CCN(Cc2ccccc2F)CC1 | inconclusive: -80.1%
24 | Cc1ccccc1S(=O)(=O)N1[C@H](CO)[C@@H](c2ccc(C#CC3CCCCC3)cc2)[C@@H]1C#N | active: -83.1%
25 | C[C@@H]1CCCCO[C@H](CN(C)C(=O)Nc2ccc(C(F)(F)F)cc2)[C@@H](C)CN([C@H](C)CO)C(=O)c2cc(NC(=O)Cc3ccccc3)ccc2O1 | active: -87.7%
26 | COc1ccc2c3c([nH]c2c1)[C@@H](CO)N(Cc1ccncc1)CC31CN(Cc2ccc(-c3ccccn3)cc2)C1 | inconclusive: -81.5%
27 | C[C@H](CO)N1C[C@H](C)[C@H](CN(C)Cc2ccc(Cl)c(Cl)c2)OCCCC[C@H](C)Oc2ccc(NS(=O)(=O)c3ccc(F)cc3)cc2C1=O | inactive: -50.3%

Row | SMILES | activity change
28 | C[C@H](NC(=O)C[C@@H]1C[C@H]2c3cc(N(C)C)ccc3O[C@H]2[C@H](CO)O1)c1ccccc1 | inactive: -50.7%
29 | Cc1ccc(S(=O)(=O)Nc2ccc3c(c2)C(=O)N([C@@H](C)CO)C[C@H](C)[C@H](CN(C)C(=O)Nc2cccc4ccccc24)OCCCC[C@@H](C)O3)cc1 | inconclusive: -80.9%
30 | CC(=O)N1CC2(C1)[C@@H](c1ccc(-c3cccc(F)c3)cc1)[C@@H](CO)N2CC1CCCC1 | inconclusive: -81.2%
31 | COc1ccc(CN(C)C[C@@H]2OCCCC[C@H](C)Oc3ccc(NC(=O)Nc4cccc5ccccc45)cc3C(=O)N([C@@H](C)CO)C[C@@H]2C)cc1 | inconclusive: -80.1%
32 | COc1ccc(CN(C)C[C@H]2OCCCC[C@H](C)Oc3ccc(NS(=O)(=O)c4ccc(Cl)cc4)cc3C(=O)N([C@H](C)CO)C[C@H]2C)cc1 | inconclusive: -80.8%
33 | C[C@@H]1CN([C@H](C)CO)C(=O)c2cccc(NC(=O)CCCCCC(=O)Nc3ccccc3N)c2O[C@H]1CN(C)Cc1ccccc1 | active: -88.2%
34 | Cc1noc(C)c1S(=O)(=O)N(C)C[C@H]1OCCCC[C@H](C)Oc2ccc(NC(=O)Nc3ccccc3)cc2C(=O)N([C@H](C)CO)C[C@H]1C | inconclusive: -80.6%
35 | N#C[C@H]1[C@@H](c2ccc(C#CC3CCCCC3)cc2)[C@@H](CO)N1S(=O)(=O)c1ccccc1 | inconclusive: -83%
36 | C[C@@H]1CN([C@@H](C)CO)C(=O)c2cc(NC(=O)c3ccccc3)ccc2O[C@@H](C)CCCCO[C@H]1CN(C)S(=O)(=O)c1ccc(Cl)cc1 | active: -84.4%
37 | N#C[C@@H]1[C@H](c2ccc(C#CC3CCCCC3)cc2)[C@@H](CO)N1C(=O)Nc1ccc(F)cc1 | inconclusive: -81.2%
38 | C[C@H](CO)N1C[C@H](C)[C@@H](CN(C)C(=O)Nc2cccc3ccccc23)Oc2ccc(NC(=O)Nc3ccc(C(F)(F)F)cc3)cc2C1=O | active: -95.8%
39 | C[C@@H]1CN([C@@H](C)CO)C(=O)c2cc(NC(=O)Nc3ccc(F)cc3)ccc2O[C@@H](C)CCCCO[C@@H]1CN(C)S(=O)(=O)c1ccc(Cl)cc1 | inconclusive: -80.5%
40 | COc1ccc(NC(=O)N2CCCCN3[C@H](CO)[C@H](c4ccc(C#Cc5ccccn5)cc4)[C@@H]3C2)cc1 | inconclusive: -82.5%
41 | C[C@@H]1CCCCO[C@H](CN(C)C)[C@H](C)CN([C@@H](C)CO)C(=O)c2cc(NC(=O)Nc3ccc(C(F)(F)F)cc3)ccc2O1 | inconclusive: -80.1%
42 | C[C@H]1CCCCO[C@@H](CN(C)S(=O)(=O)c2ccccc2)[C@@H](C)CN([C@@H](C)CO)C(=O)c2cc(NS(=O)(=O)c3ccccc3)ccc2O1 | inactive: -54.1%
43 | C[C@@H]1CCCCO[C@H](CN(C)Cc2ccc(Cl)c(Cl)c2)[C@H](C)CN([C@@H](C)CO)C(=O)c2cc(NC(=O)Nc3ccc(F)cc3)ccc2O1 | active: -84.7%
44 | COc1cccc(S(=O)(=O)N(C)C[C@@H]2OCc3ccccc3-c3c(n(C)c4ccccc34)C(=O)N([C@@H](C)CO)C[C@@H]2C)c1 | active: -85.5%
45 | C/C=C/c1ccc2c(c1)O[C@@H](CN(C)C(=O)C1CCCCC1)[C@@H](C)CN([C@@H](C)CO)S2(=O)=O | inactive: 18.9%
46 | CC(C)NC(=O)N(C)C[C@@H]1OCCCC[C@@H](C)Oc2ccc(NC(=O)Nc3ccc(C(F)(F)F)cc3)cc2C(=O)N([C@@H](C)CO)C[C@@H]1C | inconclusive: -81.1%
47 | N#C[C@H]1[C@@H](c2ccc(C#CCC3CCCC3)cc2)[C@@H](CO)N1C(=O)c1ccccn1 | inconclusive: -81.5%
48 | COc1ccc(C#Cc2ccc3c(c2)O[C@@H](CN(C)C(C)=O)[C@@H](C)CN([C@@H](C)CO)S3(=O)=O)cc1 | inconclusive: -80.2%
49 | C[C@@H]1CCCCO[C@H](CN(C)C(=O)Nc2ccc3c(c2)OCO3)[C@@H](C)CN([C@H](C)CO)C(=O)c2cc(NC(=O)Nc3ccc4c(c3)OCO4)ccc2O1 | inactive: -31.6%
50 | COc1ccc2c3c([nH]c2c1)[C@H](CO)N(Cc1ccc(Cl)cc1)CC31CCN(C(=O)CN(C)C)CC1 | inconclusive: -80.4%
51 | COc1ccc(NC(=O)Nc2ccc3c(c2)CC(=O)N([C@H](C)CO)C[C@H](C)[C@@H](CN(C)Cc2ccc4c(c2)OCO4)O3)cc1 | inconclusive: -80.8%
52 | CN(C)C(=O)c1cccc(-c2ccccc2[C@@H]2[C@@H](C#N)N(C(=O)C3CC3)[C@H]2CO)c1 | inconclusive: -82.6%
53 | C[C@H]1CN([C@@H](C)CO)C(=O)Cc2cc(NC(=O)CCCCCC(=O)Nc3ccccc3N)ccc2O[C@H]1CN(C)Cc1ccc(-c2ccccc2)cc1 | active: -82.3%
54 | C[C@H](CO)N1C[C@H](C)[C@H](CN(C)S(=O)(=O)c2ccccc2)Oc2ccc(NC(=O)Cc3cn(C)c4ccccc34)cc2CC1=O | inconclusive: -81.5%
